According to the BET-seq Pho4 binding data (Le et al. 2018):
This is one part of the list. These are noisy estimates, calculated here from bound and input reads.

Molecular target: T1, Pho4 (S. cerevisiae) (UniProt P07270)
T1 sequence: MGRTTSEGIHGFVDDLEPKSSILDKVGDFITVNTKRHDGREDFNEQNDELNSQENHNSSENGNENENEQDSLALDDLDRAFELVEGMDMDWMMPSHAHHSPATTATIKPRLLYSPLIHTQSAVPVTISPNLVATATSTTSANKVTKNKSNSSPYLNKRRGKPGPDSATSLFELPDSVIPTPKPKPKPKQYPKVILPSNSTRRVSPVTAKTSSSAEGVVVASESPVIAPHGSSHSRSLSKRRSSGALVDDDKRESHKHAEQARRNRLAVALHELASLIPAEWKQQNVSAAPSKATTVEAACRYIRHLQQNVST
Assay: relative binding free energy (BET-seq); higher = weaker binding
Details: reference: library average

Row | Sequence | relative binding free energy
1 | GGTGGCACGTGTTCAT | 0.01 kcal/mol
2 | AGATTCACGTGTGGAG | 0.27 kcal/mol
3 | GTTGACACGTGGGCGG | -0.13 kcal/mol
4 | TATGTCACGTGGTTTC | 0.02 kcal/mol
5 | GGCCTCACGTGGTTTG | 0.17 kcal/mol
6 | TAGTGCACGTGTTGCA | -0.15 kcal/mol
7 | ACTGGCACGTGGGGCT | -0.32 kcal/mol
8 | TTTTGCACGTGTAAAA | 0.03 kcal/mol
9 | GTCGACACGTGTTTGG | 0.13 kcal/mol
10 | TTTGTCACGTGTCGGA | 0.07 kcal/mol
11 | TGGCTCACGTGTAAGG | 0.24 kcal/mol
12 | TTGCGCACGTGCGTGT | -0.14 kcal/mol
13 | GGGGGCACGTGGATGT | 0.03 kcal/mol
14 | TAAATCACGTGGTTAG | 0.15 kcal/mol
15 | CAGTTCACGTGGCGTG | 0.06 kcal/mol
16 | TCTGTCACGTGTAGCT | 0.13 kcal/mol
17 | TGGTGCACGTGTGGTC | 0.11 kcal/mol
18 | TAGGGCACGTGCGAGT | -0.15 kcal/mol
19 | GGCGGCACGTGAGTCG | 0.2 kcal/mol
20 | GTAGGCACGTGATACG | -0.05 kcal/mol
21 | TTGGCCACGTGGGATG | -0.2 kcal/mol

Row | Sequence | relative binding free energy
22 | TACTTCACGTGATGAT | 0.24 kcal/mol
23 | GTTTGCACGTGGCCAG | 0 kcal/mol
24 | GTAGTCACGTGAGTGT | 0.21 kcal/mol
25 | GTGGTCACGTGTTCTC | 0.17 kcal/mol
26 | CTGATCACGTGTGGTG | 0.12 kcal/mol
27 | TCTATCACGTGGGGTG | -0.17 kcal/mol
28 | TAGGACACGTGGTTAG | -0.04 kcal/mol
29 | GGTGGCACGTGTCATA | 0.02 kcal/mol
30 | GGGATCACGTGGGCCG | 0.26 kcal/mol
31 | GTTTGCACGTGGTTAT | 0.02 kcal/mol
32 | GACGGCACGTGGTAGA | 0.01 kcal/mol
33 | TGAGGCACGTGCTGAG | -0.21 kcal/mol
34 | TAGCGCACGTGTTTTA | -0.05 kcal/mol
35 | GTGTGCACGTGTGTTT | 0.16 kcal/mol
36 | ATATGCACGTGCTGAG | -0.02 kcal/mol
37 | GTTGGCACGTGGACTA | 0 kcal/mol
38 | ATGTACACGTGGGCAG | -0.02 kcal/mol
39 | TTTTACACGTGTATGT | 0.06 kcal/mol
40 | GTGGGCACGTGGCGTT | -0.1 kcal/mol
41 | ATGTACACGTGGATTT | 0.04 kcal/mol
42 | TTGCGCACGTGTCGGT | -0.17 kcal/mol

Row | Sequence | relative binding free energy
43 | AAGGTCACGTGTAGGT | 0.19 kcal/mol
44 | ACGTGCACGTGATTGG | -0.08 kcal/mol
45 | AGTCGCACGTGCGGTG | -0.08 kcal/mol
46 | TGTCGCACGTGAGTGA | -0.11 kcal/mol
47 | TTTCGCACGTGTGTGA | -0.04 kcal/mol
48 | TCGTGCACGTGCTGAG | 0.05 kcal/mol
49 | TTAAGCACGTGGGAGG | -0.21 kcal/mol
50 | GTTGACACGTGAAATG | 0.34 kcal/mol
51 | TTGAACACGTGGGGGC | -0.17 kcal/mol
52 | TTGGCCACGTGTGATT | 0.01 kcal/mol
53 | AGTCACACGTGAGTGG | 0.31 kcal/mol
54 | CCTGTCACGTGTTGTT | 0.13 kcal/mol
55 | GGTATCACGTGCTTAG | 0.19 kcal/mol
56 | GTGTACACGTGGAGTG | -0.07 kcal/mol
57 | GTTAACACGTGTTTGA | -0.02 kcal/mol
58 | TGAAGCACGTGGATGT | -0.11 kcal/mol
59 | GAGTGCACGTGATTAT | 0.24 kcal/mol
60 | TGGGGCACGTGACTGT | 0.03 kcal/mol
61 | TTTTTCACGTGAGGAC | 0.29 kcal/mol
62 | AATGTCACGTGTAGCT | -0.02 kcal/mol
63 | GGTGGCACGTGGGCGT | -0.21 kcal/mol
